For 35 molecules, cell count results are on record in the supplement of paper PMC4604168 (melanoma cell lines).

SMILES strings stand for the structures. The list shows a part of the results. Most values come without repeats; read them as rough.
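Further: cell number obtained by counting DAPI-stained nuclei in high-throughput microscope images with image analysis software, screen run in 1,536-well plates.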

The test system of the experiment is A375. In words: cell count relative to DMSO control; melanoma cells; higher = more viable cells. As to conditions: library dose: low library concentration; 72 h.
Molecule `OCc1c[nH]c2ccccc12` [Indole-3-carbinol] + COCC[n+]1c2c(n(Cc3cnccn3)c1C)C(=O)c1ccccc1C2=O [YM155] (first compound 0.8 µM, partner dose 0.0004 µM) registered a cell count of 110%.
Take `OCc1c[nH]c2ccccc12` [Indole-3-carbinol] + C[C@]1(c2nc3c(C(N)=O)cccc3[nH]2)CCCN1 [Veliparib] (first compound 0.8 µM, partner dose 1.4 µM): the cell count came to 94.2%.
Then `OCc1c[nH]c2ccccc12` [Indole-3-carbinol] + C#Cc1cccc(Nc2ncnc3cc(OCCOC)c(OCCOC)cc23)c1 [erlotinib] (first compound 0.8 µM, partner dose 0.8 µM), with 84.6%; and `C#Cc1cccc(Nc2ncnc3cc(OCCOC)c(OCCOC)cc23)c1` [erlotinib] + Cn1nnc2c(C(N)=O)ncn2c1=O [temozolomide] (first compound 0.8 µM, partner dose 2 µM), with 84%; and `C#Cc1cccc(Nc2ncnc3cc(OCCOC)c(OCCOC)cc23)c1` [erlotinib] + Cc1nc(Nc2ncc(C(=O)Nc3c(C)cccc3Cl)s2)cc(N2CCN(CCO)CC2)n1 [dasatanib] (first compound 0.8 µM, partner dose 0.004 µM), with 82.9%.
Then `Cn1c(Nc2ccc(C(F)(F)F)cc2)nc2cc(Oc3ccnc(-c4ncc(C(F)(F)F)[nH]4)c3)ccc21` + Cn1nnc2c(C(N)=O)ncn2c1=O [temozolomide] (first compound 0.08 µM, partner dose 2 µM), with 60.4%; and `COCC[n+]1c2c(n(Cc3cnccn3)c1C)C(=O)c1ccccc1C2=O` + C[C@]1(c2nc3c(C(N)=O)cccc3[nH]2)CCCN1 [Veliparib] (first compound 0.0004 µM, partner dose 1.4 µM), with 78.1%.
Then `OCc1c[nH]c2ccccc12` [Indole-3-carbinol] + COc1cc(Nc2ncc(F)c(Nc3ccc4c(n3)NC(=O)C(C)(C)O4)n2)cc(OC)c1OC [Tamatinib] (first compound 0.8 µM, partner dose 0.4 µM), with 82.3%; and `Clc1ccc(Nc2nnc(Cc3ccncc3)c3ccccc23)cc1` [vatalanib] + C[C@@H]1CCN(C(=O)CC#N)C[C@@H]1N(C)c1ncnc2[nH]ccc12 [CP690550] (first compound 2 µM, partner dose 1 µM), with 83.1%; and `C#Cc1cccc(Nc2ncnc3cc(OCCOC)c(OCCOC)cc23)c1` [erlotinib] + COCC[n+]1c2c(n(Cc3cnccn3)c1C)C(=O)c1ccccc1C2=O [YM155] (first compound 0.8 µM, partner dose 0.0004 µM), with 88.1%.
On to `Clc1ccc(Nc2nnc(Cc3ccncc3)c3ccccc23)cc1` [vatalanib] + COCC[n+]1c2c(n(Cc3cnccn3)c1C)C(=O)c1ccccc1C2=O [YM155] (first compound 2 µM, partner dose 0.0004 µM), for which the cell count was 86.6%.
For `OCc1c[nH]c2ccccc12` [Indole-3-carbinol] + COc1ccc(Cl)c(Nc2nc3ccccc3nc2NS(=O)(=O)c2cccc(NC(=O)C(C)(C)N)c2)c1 [XL147] (first compound 0.8 µM, partner dose 0.8 µM), the cell count was 83.7%.
The figure for `Nc1cccc2c1CN(C1CCC(=O)NC1=O)C2=O` (stereo not given) [lenalidomide] + C[C@]1(c2nc3c(C(N)=O)cccc3[nH]2)CCCN1 [Veliparib] (first compound 1 µM, partner dose 1.4 µM) is 75.3%; for `COCC[n+]1c2c(n(Cc3cnccn3)c1C)C(=O)c1ccccc1C2=O` + O=C(CCCCCCC(=O)Nc1ccccc1)NO [vorinostat] (first compound 0.0004 µM, partner dose 0.08 µM) it is 96.8%.
In the case of `OCc1c[nH]c2ccccc12` [Indole-3-carbinol] + Cn1c(Nc2ccc(C(F)(F)F)cc2)nc2cc(Oc3ccnc(-c4ncc(C(F)(F)F)[nH]4)c3)ccc21 [CHIR265] (first compound 0.8 µM, partner dose 0.08 µM), the cell count was found to be 76.8%.
Then `COCC[n+]1c2c(n(Cc3cnccn3)c1C)C(=O)c1ccccc1C2=O` + Nc1cccc2c1CN(C1CCC(=O)NC1=O)C2=O [lenalidomide] (first compound 0.0004 µM, partner dose 1 µM), with 75.8%; and `COCC[n+]1c2c(n(Cc3cnccn3)c1C)C(=O)c1ccccc1C2=O` + Cn1nnc2c(C(N)=O)ncn2c1=O [temozolomide] (first compound 0.0004 µM, partner dose 2 µM), with 91.8%.
The figure for `Clc1ccc(Nc2nnc(Cc3ccncc3)c3ccccc23)cc1` [vatalanib] + COc1ccc(Cl)c(Nc2nc3ccccc3nc2NS(=O)(=O)c2cccc(NC(=O)C(C)(C)N)c2)c1 [XL147] (first compound 2 µM, partner dose 0.8 µM) is 84.4%; for `Cn1c(Nc2ccc(C(F)(F)F)cc2)nc2cc(Oc3ccnc(-c4ncc(C(F)(F)F)[nH]4)c3)ccc21` + C[C@@H]1CCN(C(=O)CC#N)C[C@@H]1N(C)c1ncnc2[nH]ccc12 [CP690550] (first compound 0.08 µM, partner dose 1 µM) it is 71.6%.
For `Clc1ccc(Nc2nnc(Cc3ccncc3)c3ccccc23)cc1` [vatalanib] + Cc1nc(Nc2ncc(C(=O)Nc3c(C)cccc3Cl)s2)cc(N2CCN(CCO)CC2)n1 [dasatanib] (first compound 2 µM, partner dose 0.004 µM), the cell count was found to be 67.5%.
Then `C#Cc1cccc(Nc2ncnc3cc(OCCOC)c(OCCOC)cc23)c1` [erlotinib] + Nc1cccc2c1CN(C1CCC(=O)NC1=O)C2=O [lenalidomide] (first compound 0.8 µM, partner dose 1 µM), with 89.4%; and `Clc1ccc(Nc2nnc(Cc3ccncc3)c3ccccc23)cc1` [vatalanib] + Cn1nnc2c(C(N)=O)ncn2c1=O [temozolomide] (first compound 2 µM, partner dose 2 µM), with 77%.
The figure for `Clc1ccc(Nc2nnc(Cc3ccncc3)c3ccccc23)cc1` [vatalanib] + C[C@]1(c2nc3c(C(N)=O)cccc3[nH]2)CCCN1 [Veliparib] (first compound 2 µM, partner dose 1.4 µM) is 86.5%; for `C#Cc1cccc(Nc2ncnc3cc(OCCOC)c(OCCOC)cc23)c1` [erlotinib] + C[C@]1(c2nc3c(C(N)=O)cccc3[nH]2)CCCN1 [Veliparib] (first compound 0.8 µM, partner dose 1.4 µM) it is 87.1%.
Then `OCc1c[nH]c2ccccc12` [Indole-3-carbinol] + Cn1nnc2c(C(N)=O)ncn2c1=O [temozolomide] (first compound 0.8 µM, partner dose 2 µM), with 105%; and `Cn1c(Nc2ccc(C(F)(F)F)cc2)nc2cc(Oc3ccnc(-c4ncc(C(F)(F)F)[nH]4)c3)ccc21` + Nc1cccc2c1CN(C1CCC(=O)NC1=O)C2=O [lenalidomide] (first compound 0.08 µM, partner dose 1 µM), with 62.3%; and `Nc1cccc2c1CN(C1CCC(=O)NC1=O)C2=O` (stereo not given) [lenalidomide] + Cn1nnc2c(C(N)=O)ncn2c1=O [temozolomide] (first compound 1 µM, partner dose 2 µM), with 90.5%.
As for `O=C(CCCCCCC(=O)Nc1ccccc1)NO` [vorinostat] + COc1cc(Nc2ncc(F)c(Nc3ccc4c(n3)NC(=O)C(C)(C)O4)n2)cc(OC)c1OC [Tamatinib] (first compound 0.08 µM, partner dose 0.4 µM), the cell count was 100%.
The figure for `Cn1c(Nc2ccc(C(F)(F)F)cc2)nc2cc(Oc3ccnc(-c4ncc(C(F)(F)F)[nH]4)c3)ccc21` + Cn1cncc1[C@@](N)(c1ccc(Cl)cc1)c1ccc2c(c1)c(-c1cccc(Cl)c1)cc(=O)n2C [tipifarnib] (first compound 0.08 µM, partner dose 0.01 µM) is 31.1%.
The molecule `C#Cc1cccc(Nc2ncnc3cc(OCCOC)c(OCCOC)cc23)c1` [erlotinib] + Cn1c(Nc2ccc(C(F)(F)F)cc2)nc2cc(Oc3ccnc(-c4ncc(C(F)(F)F)[nH]4)c3)ccc21 [CHIR265] (first compound 0.8 µM, partner dose 0.08 µM) showed a cell count of 75.2%.
The figure for `Clc1ccc(Nc2nnc(Cc3ccncc3)c3ccccc23)cc1` [vatalanib] + C#Cc1cccc(Nc2ncnc3cc(OCCOC)c(OCCOC)cc23)c1 [erlotinib] (first compound 2 µM, partner dose 0.8 µM) is 77.6%; for `OCc1c[nH]c2ccccc12` [Indole-3-carbinol] + Nc1cccc2c1CN(C1CCC(=O)NC1=O)C2=O [lenalidomide] (first compound 0.8 µM, partner dose 1 µM) it is 107%; for `Clc1ccc(Nc2nnc(Cc3ccncc3)c3ccccc23)cc1` [vatalanib] + Cn1c(Nc2ccc(C(F)(F)F)cc2)nc2cc(Oc3ccnc(-c4ncc(C(F)(F)F)[nH]4)c3)ccc21 [CHIR265] (first compound 2 µM, partner dose 0.08 µM) it is 79%.
Then `Cn1c(Nc2ccc(C(F)(F)F)cc2)nc2cc(Oc3ccnc(-c4ncc(C(F)(F)F)[nH]4)c3)ccc21` + C[C@]1(c2nc3c(C(N)=O)cccc3[nH]2)CCCN1 [Veliparib] (first compound 0.08 µM, partner dose 1.4 µM), with 61.3%; and `OCc1c[nH]c2ccccc12` [Indole-3-carbinol] + Cc1nc(Nc2ncc(C(=O)Nc3c(C)cccc3Cl)s2)cc(N2CCN(CCO)CC2)n1 [dasatanib] (first compound 0.8 µM, partner dose 0.004 µM), with 73.1%.
